{"source": "PubChem BioAssay AID488969", "about": "(Vanderbilt High Throughput Screening Facility, 2010)", "note": "Over roughly 110,000 compounds, “z-score” has its median near -0.1; the highest 2% begin near 2. The list shows a part of the results.", "data": [{"target": "Metabotropic glutamate receptor 8 (Rattus norvegicus) (UniProt P70579)", "sequence (P70579 whole entry, looked up)": "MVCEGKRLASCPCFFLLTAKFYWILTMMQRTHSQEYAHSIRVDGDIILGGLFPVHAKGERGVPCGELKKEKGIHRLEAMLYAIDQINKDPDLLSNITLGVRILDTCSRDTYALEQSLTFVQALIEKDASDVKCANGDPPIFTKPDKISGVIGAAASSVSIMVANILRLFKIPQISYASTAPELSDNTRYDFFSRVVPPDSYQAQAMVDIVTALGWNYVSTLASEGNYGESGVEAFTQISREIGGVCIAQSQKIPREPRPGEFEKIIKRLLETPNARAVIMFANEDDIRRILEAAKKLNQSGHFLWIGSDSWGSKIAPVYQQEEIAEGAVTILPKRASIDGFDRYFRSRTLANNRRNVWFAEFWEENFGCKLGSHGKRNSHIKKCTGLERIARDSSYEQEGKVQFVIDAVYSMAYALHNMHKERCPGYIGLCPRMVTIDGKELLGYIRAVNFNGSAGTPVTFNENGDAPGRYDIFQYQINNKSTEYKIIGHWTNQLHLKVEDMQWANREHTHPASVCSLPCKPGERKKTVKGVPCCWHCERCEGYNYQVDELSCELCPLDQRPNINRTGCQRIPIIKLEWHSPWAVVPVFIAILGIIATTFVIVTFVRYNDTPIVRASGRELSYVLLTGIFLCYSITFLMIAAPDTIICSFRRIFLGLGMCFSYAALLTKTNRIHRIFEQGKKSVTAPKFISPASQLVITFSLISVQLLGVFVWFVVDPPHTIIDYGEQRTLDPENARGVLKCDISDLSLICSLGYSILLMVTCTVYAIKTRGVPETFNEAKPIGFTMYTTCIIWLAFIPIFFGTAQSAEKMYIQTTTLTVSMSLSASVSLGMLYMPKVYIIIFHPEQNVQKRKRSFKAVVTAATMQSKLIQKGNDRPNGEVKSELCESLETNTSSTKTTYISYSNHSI", "assay": "mGluR8 Gi/Go-coupled signaling modulation – cell-based, rat, thallium flux, HTS, primary screen (AID 488969)", "details": "HEK293 rat mGluR8, GIRK (G protein-gated inwardly rectifying potassium channel) thallium flux, FluoZin2; at 10 µM; stronger effect = higher value; submaximal glutamate (EC20) added with thallium", "values": [{"smiles": "CC(C)CC(=O)N1CCN(c2ccc([N+](=O)[O-])c(NCc3ccccc3)c2)CC1", "z-score": -0.62}, {"smiles": "NCCCN1CCOCC1", "z-score": -0.0276}, {"smiles": "COc1cccc(C(=O)Nc2ccc(NC(C)=O)cn2)c1", "z-score": 0.157}, {"smiles": "COc1cccc(COc2ccccc2C2Nc3ccc(Br)cc3C(=O)N2NC(=O)c2ccncc2)c1", "note": "(centres undefined)", "z-score": -0.52}, {"smiles": "C/C(=N\\NS(=O)(=O)c1ccc(C)cc1)c1ccc(C)s1", "z-score": -0.125}, {"smiles": "CCC(c1nnnn1C(C)(C)CC)N(CCCN1CCOCC1)Cc1cc2cccc(C)c2[nH]c1=O", "note": "(centres undefined)", "z-score": 0.192}, {"smiles": "CCCC(CCC)C(=O)NNc1cc(=O)c2c(=O)n(C)c(=O)n(C)c2[nH]1", "z-score": -0.704}, {"smiles": "Cn1cc([N+](=O)[O-])c(C(=O)N/N=C/c2ccccc2)n1", "z-score": -0.138}, {"smiles": "CCOC(Cn1c(-c2ccc(OC)cc2)nc2ccccc21)OCC", "z-score": -0.127}, {"smiles": "O=S(=O)(c1ccc(Cl)s1)N1CCc2ccccc2C1", "z-score": -0.1}, {"smiles": "CCOc1cc2[nH]c(=O)n(CCC(=O)NCCc3ccc(OC)c(OC)c3)c(=O)c2cc1OCC", "z-score": -1.28}, {"smiles": "CCN(CC)S(=O)(=O)c1cccc(S(=O)(=O)N2CCCCC2)c1", "z-score": -0.121}, {"smiles": "COc1ccc(CCNC(=S)Nc2ccc(C)cc2C)cc1", "z-score": -0.0431}, {"smiles": "O=C(NCC(c1cccnc1)N1CCN(c2ccc(F)cc2)CC1)c1ccccc1", "note": "(centres undefined)", "z-score": 0.917}, {"smiles": "Cc1nnc(SCc2ccc(Cl)cc2Cl)[nH]c1=O", "z-score": 0.492}, {"smiles": "Cn1cc(/C=C/c2nc3ccccc3c(=O)n2-c2cccc([N+](=O)[O-])c2)c2ccccc21", "z-score": -0.0701}, {"smiles": "COC(=O)C1C2C=CC3(CN(CC4CCCO4)C(=O)C13)O2", "note": "(centres undefined)", "z-score": -0.0852}, {"smiles": "CCCCC(=O)Nc1ccc(C(=O)NNC(=S)NC(=O)c2cccs2)cc1", "z-score": 0.439}, {"smiles": "Cc1ccc(-c2cc3nc(-c4ccccc4)cc(N)n3n2)cc1", "z-score": -0.0169}, {"smiles": "c1ccc(CNc2ccc3c(c2)ncn3C2CCCCC2)nc1", "z-score": -0.0967}, {"smiles": "COc1ccc(S(=O)(=O)n2nc(OC(=O)C3CCCCC3)cc2N)cc1", "z-score": 0.933}, {"smiles": "O=C(CSc1nc2ccc([N+](=O)[O-])cc2[nH]1)NC1CCCCCC1", "z-score": 0.93}, {"smiles": "Cc1cc(NC(=O)/C=C/c2ccc(F)cc2)n(-c2nc3ccccc3[nH]2)n1", "z-score": -0.0458}, {"smiles": "CC(NC(=O)c1ccc(N2CCCC2=O)cc1)c1ccccc1", "note": "(centres undefined)", "z-score": -0.16}, {"smiles": "O=C(CN(C(=O)c1ccc(Cl)cc1)C1CCCCC1)Nc1ccc(Cl)c([N+](=O)[O-])c1", "z-score": 0.377}, {"smiles": "O=C(O)C1CCCCC1C(=O)Nc1cc(Cl)ccc1Cl", "note": "(centres undefined)", "z-score": 2.08}, {"smiles": "CC(C)n1nnnc1-c1cccc(Cl)c1", "z-score": -0.12}, {"smiles": "CC(=O)Nc1c(C(=O)N2CCOCC2)cnn1-c1ccc(C)c(C)c1", "z-score": -0.0497}, {"smiles": "Oc1c(C=NCc2ccncc2)sc2ccccc12", "z-score": 2.11}, {"smiles": "CCN(CCO)Cc1csc2c(Br)cccc12", "z-score": 0.216}, {"smiles": "COCCn1c(=O)[nH]c2cc(C(=O)NCCN3CCN(c4ccccc4)CC3)ccc2c1=O", "z-score": -0.468}, {"smiles": "CC(NC(=O)C(=O)NN=C1CCCCCC1)c1ccccc1", "note": "(centres undefined)", "z-score": -0.167}, {"smiles": "COc1ccc(/C=C/C(=O)NC(C)CCc2ccccc2)cc1", "note": "(centres undefined)", "z-score": 0.461}, {"smiles": "CCN(C(=O)CSc1nnc(-c2ccncc2)n1C)C1CCS(=O)(=O)C1", "note": "(centres undefined)", "z-score": -0.521}, {"smiles": "Cc1cc(C)c(NC(=O)C2C3/C=C\\CCCCC32)c(C)c1", "note": "(centres undefined)", "z-score": -0.102}, {"smiles": "CN(C)c1ccnc2sc(C(=O)c3ccccc3)c(N)c12", "z-score": -0.37}, {"smiles": "O=C(N/N=C\\c1ccc(CN(Cc2ccc(Cl)cc2)S(=O)(=O)c2ccccc2)o1)C(=O)Nc1ccc(F)cc1", "z-score": -0.0826}, {"smiles": "O=C(CO/N=C/c1ccccc1OC(F)F)NC1CCCCC1", "z-score": -0.0902}, {"smiles": "COc1ccc(OC)c(-c2nnc(NC(=O)C(C)Sc3nncn3C)s2)c1", "note": "(centres undefined)", "z-score": -0.462}, {"smiles": "Cc1cccc(N2CC(C)Cn3c2nc2c3c(=O)n(CC(=O)OCc3ccccc3)c(=O)n2C)c1", "note": "(centres undefined)", "z-score": -0.321}, {"smiles": "O=C(c1ccco1)N1CCN(c2nc(-c3ccc(F)cc3)cs2)CC1", "z-score": -1.08}, {"smiles": "NC(=O)c1cc(-c2ccccc2)nc(N2CCCCCC2)n1", "z-score": 0.438}, {"smiles": "O=C(NCCc1ccccc1)C1CCCN1S(=O)(=O)c1ccc(F)cc1", "note": "(centres undefined)", "z-score": -0.0903}, {"smiles": "COc1cc(C2C(C(C)=O)=C(O)C(=O)N2CCN2CCOCC2)ccc1O", "note": "(centres undefined)", "z-score": -0.351}, {"smiles": "Cn1cnnc1SCc1ccccc1", "z-score": -0.0881}, {"smiles": "OC(COCC(F)(F)C(F)(F)C(F)(F)C(F)F)Cn1c2ccccc2c2ccccc21", "note": "(centres undefined)", "z-score": 0.164}, {"smiles": "CCCn1nc2cc(C(=O)NCc3ccc(C)cc3)ccc2c1OC", "z-score": -0.433}, {"smiles": "Cn1c(N=Nc2ccccc2)nc2ccccc21", "z-score": -0.172}, {"smiles": "O=C(NCCc1ccccn1)c1cc(-c2cccc3ccccc23)nc2ccccc12", "z-score": -0.201}, {"smiles": "Clc1ccc(C(c2nnnn2C2CCCC2)N2CCSCC2)cc1", "note": "(centres undefined)", "z-score": -0.998}, {"smiles": "COc1ccc(-n2c(NCCN(C)C)nc3sc4c(c3c2=O)CCCCC4)cc1", "z-score": 0.108}, {"smiles": "NC(=O)c1cccc(S(=O)(=O)N2CCCCC2)c1", "z-score": -0.24}, {"smiles": "CCSc1ccccc1C(=O)NCc1ccco1", "z-score": -0.168}, {"smiles": "Cc1cccc(N2CCN(C(=O)C3CCCN(S(=O)(=O)c4cnc[nH]4)C3)CC2C)c1", "note": "(centres undefined)", "z-score": -0.0441}]}]}
